From the supplement of paper PMC3334620
In all, about 33,000 sequences were measured (“E-score (-0.5 to 0.5)”: median about -0.016, highest 2% from about 0.32 on). Some of the results follow.

molecular target: T1, Stp1 (UniProt B3LFK1); assay: PBM E-score (8-mer binding enrichment) (E-score (-0.5 to 0.5)); higher = stronger / more preferred TF binding; most listed sequences are background and not binding sites; conditions: protein concentration: 200 nM; construct: GST-full length
T1 sequence: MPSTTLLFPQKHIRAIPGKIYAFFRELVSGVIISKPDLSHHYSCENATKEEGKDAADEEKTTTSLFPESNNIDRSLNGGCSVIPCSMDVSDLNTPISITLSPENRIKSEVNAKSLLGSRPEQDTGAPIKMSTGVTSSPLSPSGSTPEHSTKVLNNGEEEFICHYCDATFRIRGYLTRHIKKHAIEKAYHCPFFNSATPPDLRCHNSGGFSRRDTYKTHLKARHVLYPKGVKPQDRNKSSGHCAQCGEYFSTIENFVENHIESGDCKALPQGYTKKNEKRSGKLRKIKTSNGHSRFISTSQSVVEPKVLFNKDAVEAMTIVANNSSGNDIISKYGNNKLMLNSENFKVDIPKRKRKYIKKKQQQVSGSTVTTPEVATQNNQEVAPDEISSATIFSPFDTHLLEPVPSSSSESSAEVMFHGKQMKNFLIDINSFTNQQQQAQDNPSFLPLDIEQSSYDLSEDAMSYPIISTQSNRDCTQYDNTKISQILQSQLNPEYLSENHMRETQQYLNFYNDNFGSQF
How it was run: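 The E-score, a modified Wilcoxon-Mann-Whitney statistic, was computed by the Universal PBM Analysis Suite for every ungapped eight-base word pooled with its reverse complement. Scans behind it were normalised with masliner after bound GST-tagged yeast transcription factors were detected with fluorescent anti-GST. The proteins, at about 100-200 nM, had been applied to universal all-10-mer Agilent arrays made double-stranded by primer extension.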

Sequence | PBM E-score
GCGAAGTA | -0.0642
CTTCACAA | -0.0745
ATCGACAC | -0.144
ACGGTGAC | -0.0841
CCACGCTC | -0.157
ACAATGAG | -0.234
GACCGCGC | 0.123
ATTCGCTG | 0.00654
AACCGCTT | -0.109
ATCGGGAG | -0.167
CGAGAAAC | -0.00599
AAGCGGAC | 0.0592
AGACGGGA | -0.12
ATTCTCCA | 0.0478
ACTTGTCT | -0.0326
CCACGCCC | -0.188
CCCCCACA | -0.332
ACGTCGAT | 0.0713
ACTAACTC | -0.271
CTGATAAG | 0.129
ACACTTTA | -0.0763
CAATTAGC | 0.0542
CCGTCATA | 0.0738
ACGTTTGC | -0.0424
ACAGACAT | 0.0663

Sequence | PBM E-score
ACCAATCA | 0.0394
GTCTTTCA | 0.0147
AGGGCCCG | -0.152
TACCATGA | -0.172
GATAGTAC | -0.0487
ATCTTTCG | -0.0513
AACAGTGG | -0.126
CCTACCCC | -0.368
AAATCAGA | 0.168
ACATAAAA | 0.172
CAACCTGG | -0.101
CCCCGGAA | -0.321
CTGCCGAC | -0.181
CATGTGCG | 0.174
AAATAAAT | 0.253
AGTGGTGG | -0.0452
CCCTGTTA | -0.00414
GGCGGCAC | 0.446
GAGCTGTA | -0.164
CGTGCCAA | 0.11
CGTCACTC | -0.119
TCACGCAA | 0.215
AGGGGCTA | -0.269
ATGGACTC | -0.0735
ACCTATAC | 0.0036

Sequence | PBM E-score
ATTCAACG | 0.193
ATTGTAAA | 0.179
CTGGGTCA | -0.144
TATAGATA | -0.142
AAGCCCCC | -0.335
CTAAACGC | 0.107
GCATGGGC | -0.111
ATTTCTGA | 0.0272
TACCACCA | -0.254
CCCTCATA | -0.243
GGGGCAAC | -0.107
ATACTTAG | 0.0169
GGCCTGCA | -0.324
AGTTTTCG | 0.0503
CCCTAAAC | -0.193
CGCGAGCA | -0.204
ATAGAATG | 0.253
TGCTCGAA | -0.0187
GTTTCTGA | -0.0379
AACCAGAT | -0.141
CGGGTCTC | 0.0506
CGGACCAA | 0.0479
GGGAGTTA | -0.169
AGACTAAC | -0.119
ACCGTAAC | 0.0376

Sequence | PBM E-score
CATGCCGA | 0.188
CATTAGGC | -0.0536
ATACTCAA | 0.103
CTCCAACA | -0.0881
CATACGAC | -0.00709
AGTTCAAC | -0.137
CAACTGTG | -0.0366
AGGGGGCG | -0.0306
AGTCTACA | -0.106
CAATCCCC | -0.294
AGACCTAA | -0.234
TAATACGA | 0.0528
TCTAGAAA | 0.0528
ATTAGTGG | 0.0954
AAGTTAAG | -0.117
ACCGTTTA | 0.168
AGCGCTAA | 0.13
CTCTATAC | -0.0646
CGGACTCA | -0.19
AATAACCC | 0.0684
TAACAAGA | 0.0726
AATGTGGT | 0.0253
AAATACAG | 0.0368
GGACTCCC | -0.334
GATATGAC | 0.0218

Sequence | PBM E-score
ACGACCTA | -0.0634
ACCTTCCA | 0.0663
AGGGCTTA | -0.265
AGCGTGAG | 0.0678
AATTCGCT | 0.151
ATGCAGTG | 0.0912
AACTGTCG | 0.0925
AGCGACAC | -0.0137
CCTTCTTC | -0.0872
ACGGCTGA | 0.147
AATCCTCC | -0.17
AATCTTCG | 0.196
TGAACGCA | 0.0368
CGGTGATC | -0.121
CTATCTCC | -0.119
AGCCGACA | -0.123
TGGGCCAA | -0.0401
GAAAACAA | 0.149
GGAGATTA | -0.0966
AAGCGATG | -0.0673
ATGTATAA | -0.0152
ATGGAAGA | -0.0539
CAAGATAC | 0.0121
CAGGTGGG | -0.132
ATAAGCAT | 0.00239

Sequence | PBM E-score
CCCCAGCC | -0.336
CGTCGCCC | -0.13
AATCCCAC | -0.275
GCTCCAGA | -0.155
CGATAGGA | -0.162
ACGGACGG | 0.0736
CACAGCTA | -0.135
ATGTGGGC | -0.215
CATTACGC | -0.00938
GAAGGGTA | -0.0389
GCCATGCC | 0.324
GCATTGGA | 0.056
ATACTAAT | 0.0391
GTGGGTTA | -0.085
TCAAAGAA | -0.0561
CAGATATG | -0.0843
ATTCTAGC | 0.0362
CATAATAC | 0.051
AGAATAAT | 0.226
TCTTGGAA | 0.0702
AGGCCACC | -0.233
TAAAAGCA | 0.0501
GACCCCCC | -0.439
ATACTTCG | 0.0557
CTTCGGAA | 0.0613

Sequence | PBM E-score
CACTTAAA | 0.0992
AGCATTTC | 0.0271
AGGCTCAC | -0.14
ATGTTTGG | 0.0181
AAAGTTGA | 0.00862
CCTCTACA | -0.269
GGACGAAA | 0.101
AAGCGCCG | 0.465
CCAACAAC | -0.119
GATCTTGA | 0.0408
CAGTGTAC | -0.0498
TAACAATA | 0.0276
GTGTGAGA | 0.0629
AATCTACG | -0.0982
AATCAATG | 0.174
GGTGCTAA | 0.0579
AATTCAGG | 0.155
CGCGTGGC | 0.201
CTCACAAA | 0.109
CACAACTA | 0.112
ATGGTTGA | 0.0822
ACGGCCAC | 0.3
